In patent publication US12331094B2 (Bayer Aktiengesellschaft, priority 2018, dated 2025):

B1: 61: ANP engrafted antibody, CDRH2 (antibody)
heavy: EVQLLESGGGLVQPGGSLRLSCAASGFTFSSYAMSWVRQAPGKGLEWVSAISGTSASLAITGPDGGSGGSLRRSSCFGGRMDRIGAQSGLGCNSFRYGSDRFSGSKSGGSTYYADSVKGRFTISRDNSKNTLYLQMNSLRAEDTAVYYCAKLTGAEYFQHWGQGTLVTVSS[here human IgG1 constant region without letters]
light: QSVLTQPPSVSGAPGQRVTISCTGSSSNIGAGYDVHWYQQLPGTAPKLLIYGNSNRPSGVPDRFSGSKSGTSASLAITGLQAEDEADYYCQSYDSSLSGVVFGGGTKLTVLGQPKAAPSVTLFPPSSEELQANKATLVCLISDFYPGAVTVAWKADSSPVKAGVETTTPSKQSNNKYAASSYLSLTPEQWKSHRSYSCQVTHEGSTVEKTVAPTECS
B2: B1: BNP (Hum28aa) engrafted antibody, CDRH3 (antibody)
heavy: EVQLLESGGGLVQPGGSLRLSCAASGFTFSSYAMSWVRQAPGKGLEWVSAISGSGGSTYYADSVKGRFTISRDNSKNTLYLQMNSLRAEDTAVYYCTSVHQETKKYQSSPDGGSGGMVQGSGCFGRKMDRISSSSGLGCKVLRRGSYSYTYNYEWHVDVWGQGTLVTVSS[here human IgG1 constant region without letters]
light: B1 light
B3: B5: BNP (Hum28aa) engrafted antibody, CDRH2 (antibody)
heavy: EVQLLESGGGLVQPGGSLRLSCAASGFTFSSYAMSWVRQAPGKGLEWVSAISGSVVVTSHQAPGGGSGGMVQGSGCFGRKMDRISSSSGLGCKVLRRGEKKKLKSLAYGSTYYADSVKGRFTISRDNSKNTLYLQMNSLRAEDTAVYYCAKLTGAEYFQHWGQGTLVTVSS[here human IgG1 constant region without letters]
light: B1 light
B4: 4: ANP engrafted antibody, CDRH1 (antibody)
heavy: EVQLLESGGGLVQPGGSLRLSCAASGFTFGSGSGSGGSGGSLRRSSCFGGRMDRIGAQSGLGCNSFRYGGSGGSGSGSGMSWVRQAPGKGLEWVSAISGSGGSTYYADSVKGRFTISRDNSKNTLYLQMNSLRAEDTAVYYCAKLTGAEYFQHWGQGTLVTVSS[here human IgG1 constant region without letters]
light: B1 light
B5: Compound 9: ANP engrafted antibody, CDRH1 (antibody)
heavy: EVQLLESGGGLVQPGGSLRLSCAASGFTFGSGSGSGSGSGSPDGGSGGSLRRSSCFGGRMDRIGAQSGLGCNSFRYGSYGSGSGSGSGSGMSWVRQAPGKGLEWVSAISGSGGSTYYADSVKGRFTISRDNSKNTLYLQMNSLRAEDTAVYYCAKLTGAEYFQHWGQGTLVTVSS[here human IgG1 constant region without letters]
light: B1 light
B6: 80: ANP engrafted antibody, CDRH2 (antibody)
heavy: EVQLLESGGGLVQPGGSLRLSCAASGFTFSSYAMSWVRQAPGKGLEWVSAISGSTYISNVNHKPDGGSGGSLRRSSCFGGRMDRIGAQSGLGCNSFRYGSNTKVDKKVEGGSTYYADSVKGRFTISRDNSKNTLYLQMNSLRAEDTAVYYCAKLTGAEYFQHWGQGTLVTVSS[here human IgG1 constant region without letters]
light: B1 light
B7: 94: ANP engrafted antibody, CDRH2 (antibody)
heavy: EVQLLESGGGLVQPGGSLRLSCAASGFTFSSYAMSWVRQAPGKGLEWVSAISGPNPNPNPNPNSPDGGSGGSLRRSSCFGGRMDRIGAQSGLGCNSFRYGSYNPNPNPNPNPGSTYYADSVKGRFTISRDNSKNTLYLQMNSLRAEDTAVYYCAKLTGAEYFQHWGQGTLVTVSS[here human IgG1 constant region without letters]
light: B1 light
B8: B12: BNP (Hum28aa) engrafted antibody, CDRH3 (antibody)
heavy: [here about 100 residues without letters]GITGTKKYQSSPDGGSGGMVQGSGCFGRKMDRISSSSGLGCKVLRRGSYSYTYNYAEYFQHWGQGTLVTVSS[here human IgG1 constant region without letters]
light: B1 light

Molecular target: T1, human NPRA (hNPRA) (Homo sapiens, UniProt P16066)
T1 construct: expressed in transfected cells
T1 sequence (P16066 33-1061): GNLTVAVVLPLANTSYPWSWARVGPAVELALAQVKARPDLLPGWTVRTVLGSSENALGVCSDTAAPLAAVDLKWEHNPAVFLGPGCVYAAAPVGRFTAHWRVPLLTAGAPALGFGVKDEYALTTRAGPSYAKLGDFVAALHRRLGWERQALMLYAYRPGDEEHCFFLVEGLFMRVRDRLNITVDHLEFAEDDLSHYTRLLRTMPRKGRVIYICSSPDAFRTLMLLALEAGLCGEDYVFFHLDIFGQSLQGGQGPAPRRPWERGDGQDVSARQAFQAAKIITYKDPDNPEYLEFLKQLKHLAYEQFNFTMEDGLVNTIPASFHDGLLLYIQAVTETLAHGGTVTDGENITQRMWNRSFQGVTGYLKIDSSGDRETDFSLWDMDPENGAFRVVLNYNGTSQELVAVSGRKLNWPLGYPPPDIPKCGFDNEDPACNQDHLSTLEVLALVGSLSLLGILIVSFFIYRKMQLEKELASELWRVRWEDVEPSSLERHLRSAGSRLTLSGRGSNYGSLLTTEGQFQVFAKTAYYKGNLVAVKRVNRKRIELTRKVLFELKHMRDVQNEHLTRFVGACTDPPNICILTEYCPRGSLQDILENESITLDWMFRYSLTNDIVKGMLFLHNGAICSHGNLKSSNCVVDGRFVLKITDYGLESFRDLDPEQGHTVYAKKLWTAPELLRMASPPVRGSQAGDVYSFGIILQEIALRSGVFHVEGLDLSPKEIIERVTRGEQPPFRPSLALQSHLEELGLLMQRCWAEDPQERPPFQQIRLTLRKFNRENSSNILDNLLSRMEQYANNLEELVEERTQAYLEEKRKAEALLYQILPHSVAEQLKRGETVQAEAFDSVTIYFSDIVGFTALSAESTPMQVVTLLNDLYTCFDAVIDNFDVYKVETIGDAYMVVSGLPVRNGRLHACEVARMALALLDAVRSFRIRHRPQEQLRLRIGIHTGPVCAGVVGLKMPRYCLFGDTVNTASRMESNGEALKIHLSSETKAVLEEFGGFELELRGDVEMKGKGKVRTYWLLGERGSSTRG
Experiment: cGMP quantification (HTRF) on stable hNPRA-CHO k1 cells (res, ics, pcs samples)
Assay type: cell-based
Settings: for activity on hNPRA cells / qualit. activity on hNPRA: BNP engrafted constructs; for qualit. activity on hNPRA: purified compound samples; for qualit. activity of corresp. ANP cpd.: value of the ANP engrafted construct with same integration locus and N-/C-terminal sequence (named in Table 5)
Protocol: All activities shown in Tables 7 and 8 were measured on cells with heterologous over expression of human NPRA (hNPRA) by use of a cGMP quantification assay conducted according to manufacturer's instructions (cisbio; 62GM2PEH). In brief, the assay quantifies cGMP in buffered solution or cell-culture supernatants based on the competition between cGMP produced by the cell as result of the NPRA stimulation through the (natriuretic peptide) sample and d2 labelled cGMP for binding to a Cryptate labelled antibody. Sample cGMP and d2 labeled cGMP compete for binding to a limited number of sites on Cryptate labeled anti-cGMP antibodies, and consequently, HTRF® specific fluorescent signal (i.e. energy transfer) is inversely proportional to the concentration of cGMP in the sample.
Dose-response curve data were analyzed with GraphPad Prism (version 7.00 for Windows, GraphPad Software, La Jolla California USA) and EC50 were fitted according to Y=Bottom+(Top−Bottom)/(1+10^((Log EC50−X)*HillSlope)) applying constraints for bottom, top and slope (shared value for all data sets of the respective experiment).
The raw compound sample activity on stable hNPRA-CHO k1 cells was first assessed by comparison to the negative control TPP-5657 and to a positive sample, in particular TPP-5661. Controls and res were tested in quadruplets in two concentrations with a relative dilution factor of 5 aiming for a fluorescent signal (s) in the dynamic range of the assay. […] Values listed in Table 7, columns “activity res” and “stdev activity res”, represent the average of the results for the two concentrations and the respective standard deviation. Res signals less than half of the signal of the reference compound TPP-5661 (36%) were assessed as not active (n.a.).
The activity of several raw compound samples on stable hNPRA-CHO k1 cells was reassessed by comparison to reference sample TPP-5661 in 2.5-fold dilution series (8 concentrations) starting with a 5-fold dilution. The “log EC50” fit value as activity measure of the res was set in relation to the corresponding value of the reference res TPP-5661 by calculating the delta “log EC50” _compound−“log EC50” _TPP-5661; resulting values are listed in Table 7, column “rel. activity res”. […] All samples were applied in quadruplets.
The activity of isolated compound samples on stable hNPRA-CHO k1 cells was assessed by EC50 determination and comparison to reference sample TPP-5661. Samples were tested in 2.5-fold dilution series from 80 nM to 0.13 nM. The log EC50 fit value as activity measure of the ics was set in relation to the corresponding value of the reference ics TPP-5661 (−8.8) by calculating the delta log EC50_compound−log EC50_TPP-5661; resulting values are listed in Table 7, column “rel. log EC50 ics”. All samples were applied in quadruplets.
The activity of purified compound samples on stable hNPRA-CHO k1 cells was assessed in multiple experiments by EC50 determination and comparison to reference sample TPP-5661. Samples were tested in dilution series at least in quadruplets. […] The log EC50 fit value as activity measure of the pcs was set in relation to the corresponding value of the reference TPP-5661 in the respective experiment (in average −9.2, standard deviation 0.5) by calculating the delta log EC50_compound−log EC50_TPP-5661.
Compounds showing an activity in res without confirmation as ics or pcs are marked with an unified “y”, and compounds assessed as not active (“n.a.” in column “activity res”) probably due to their very low expression level (≤1 μg/ml, “n.e.” in column “μg/ml res”) are marked accordingly.

[1] = ANP engrafted constructs, summarized assessment relative to TPP-5661 (excerpt of Table 7)
[2] = summarized qualitative assessment over res, ics, pcs (CHO and HEK293) data

| Molecule | qualit. activity [1] | activity after compound preparation (pcs) (purified compound samples (pcs)) | activity as res (raw compound samples (res), stable hNPRA-CHO k1 cells) | qualit. activity [2] | activity on hNPRA cells | qualit. activity on hNPRA (stable hNPRA-CHO k1 cells) | qualit. activity of corresp. ANP cpd. |
| --- | --- | --- | --- | --- | --- | --- | --- |
| B1 | ++ (relative log EC50<0.7 were assessed as very active) | shown | no activity | ++ (relative log EC50<0.7 were assessed as very active) | – | – | – |
| B2 | – | – | – | – | significant activity | ++ (relative log EC50<0.7 were assessed as very active) | – |
| B3 | – | – | – | – | significant activity | ++ (relative log EC50<0.7 were assessed as very active) | – |
| B4 | ++ (relative log EC50<0.7 were assessed as very active) | – | – | ++ (relative log EC50<0.7 were assessed as very active) | – | – | – |
| B5 | ++ (relative log EC50<0.7 were assessed as very active) | – | – | ++ (relative log EC50<0.7 were assessed as very active) | – | – | ++ (relative log EC50<0.7 were assessed as very active) |
| B6 | ++ (relative log EC50<0.7 were assessed as very active) | – | – | ++ (relative log EC50<0.7 were assessed as very active) | – | – | ++ (relative log EC50<0.7 were assessed as very active) |
| B7 | +++ (highest activities were observed at relative log EC50 below −0.7) | – | – | +++ (highest activities were observed at relative log EC50 below −0.7) | – | – | +++ (highest activities were observed at relative log EC50 below −0.7) |
| B8 | – | – | – | – | – | ++ (relative log EC50<0.7 were assessed as very active) | – |
